According to the supplement of paper PMC10369915:
The list shows a part of the results. Cut-off read from the data, not from the text of the source: active = 3.2 or more and inactive = the rest. The signal is at background level for most entries.

Assays:
Assay in all cases: enrichment score (SH2-bound / input frequency) (ratio); bacterial display of known human phosphotyrosine sites (pTyr-Var adds point mutants) read by sequencing; higher = stronger binding; tyrosines were phosphorylated by kinases first
Conditions in all cases: peptide library: pTyr-Var
SHP2 C-SH2 domain E139D = molecular target: SHP2 C-SH2 domain E139D
[1] = molecular target: SHP2 C-SH2 domain wild-type
SHP2 N-SH2 domain L43F = molecular target: SHP2 N-SH2 domain L43F
SHP2 N-SH2 domain T42A = molecular target: SHP2 N-SH2 domain T42A
SHP2 N-SH2 domain T52S = molecular target: SHP2 N-SH2 domain T52S
[2] = molecular target: SHP2 N-SH2 domain wild-type
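Note: displayed peptides selected on beads carrying the immobilized SH2 domain, with library peptides lacking any tyrosine serving as negative controls.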

| Binder | enrichment score (SHP2 C-SH2 domain E139D) | enrichment score [1] | enrichment score (SHP2 N-SH2 domain L43F) | enrichment score (SHP2 N-SH2 domain T42A) | enrichment score (SHP2 N-SH2 domain T52S) | enrichment score [2] |
| --- | --- | --- | --- | --- | --- | --- |
| RCLKDYGEFEV [GINS1_Y156] | inactive: 0.988 | inactive: 1.07 | inactive: 1.13 | inactive: 0.772 | inactive: 1 | inactive: 1.09 |
| MSLPGYKLVTG [GJA1_Y286_P283L] | inactive: 0.918 | inactive: 0.824 | inactive: 0.903 | inactive: 0.884 | inactive: 1.09 | inactive: 0.982 |
| LPEVSYVKAID [GLRA1_Y307_K304E] | inactive: 0.905 | inactive: 0.821 | inactive: 1.37 | inactive: 1.48 | inactive: 1.13 | inactive: 0.602 |
| IKNFKYGIEEH [GJA1_Y137_K134N] | inactive: 0.794 | inactive: 0.583 | inactive: 0.58 | inactive: 0.505 | inactive: 0.655 | inactive: 0.807 |
| VNFGAYINFFK [GLB1_Y488_D491Y_YF] | inactive: 1.32 | inactive: 1.63 | inactive: 1.31 | inactive: 1.33 | inactive: 1.08 | inactive: 1.32 |
| KVDKEYEVGVR [GHR_Y226_R229G] | inactive: 0.668 | inactive: 0.572 | inactive: 0.689 | inactive: 0.606 | inactive: 0.551 | inactive: 0.703 |
| RISPEYKQNEI [GJB1_Y243_L239I] | inactive: 0.648 | inactive: 0.595 | inactive: 0.74 | inactive: 0.542 | inactive: 0.644 | inactive: 0.611 |
| EVESPYEVHDY [GIGYF2_Y1168] | inactive: 0.452 | inactive: 0.671 | inactive: 0.537 | inactive: 0.589 | inactive: 0.604 | inactive: 0.691 |
| GCVRMYELVHR [GLE1_Y135] | inactive: 1.93 | inactive: 1.97 | inactive: 1.99 | inactive: 1.55 | inactive: 1.81 | inactive: 2 |
| SSSPTYLDLPF [GLI3_Y168_P169L] | inactive: 0.826 | inactive: 0.889 | inactive: 0.861 | inactive: 1.34 | inactive: 0.768 | inactive: 0.866 |
| VNFGAYINDFN [GLB1_Y488_K493N_YF] | inactive: 1.06 | inactive: 1.31 | inactive: 0.923 | inactive: 0.923 | inactive: 1.05 | inactive: 1.57 |
| RLKAKYPAATG [GLI3_Y933_A934P] | inactive: 1.23 | inactive: 1 | inactive: 0.988 | inactive: 1.15 | inactive: 1.24 | inactive: 1.12 |
| EVESPYEVRDF [GIGYF2_Y1168_H1171R_YF] | inactive: 0.774 | inactive: 0.682 | inactive: 0.77 | inactive: 0.701 | inactive: 0.708 | inactive: 0.703 |
| DDERGYRRVRC [GIGYF2_Y268_S273C] | inactive: 0.609 | inactive: 0.677 | inactive: 0.565 | inactive: 0.582 | inactive: 0.603 | inactive: 0.65 |
| VNYGAYINNFK [GLB1_Y488_D491N] | inactive: 1.47 | inactive: 1.56 | inactive: 1.11 | inactive: 2.29 | inactive: 1.16 | inactive: 1.35 |
| SSYPDYLAAVD [GLB1_Y154_D151Y] | inactive: 1.1 | inactive: 0.925 | inactive: 1.04 | inactive: 0.672 | inactive: 0.846 | inactive: 0.804 |
| QEKKGYFEDRC [GLUL_Y336_R341C] | inactive: 0.61 | inactive: 0.378 | inactive: 0.636 | inactive: 0.389 | inactive: 0.566 | inactive: 0.644 |
| IGMSSYVMLAS [GGCX_Y301_F299S] | inactive: 1.24 | inactive: 2.01 | inactive: 1.3 | active: 5.15 | inactive: 2.42 | inactive: 1.26 |
| DCVRMYELVHR [GLE1_Y135_G130D] | inactive: 1.31 | inactive: 1.52 | inactive: 1.4 | inactive: 1.06 | inactive: 1.04 | inactive: 1.32 |

| Binder | enrichment score (SHP2 C-SH2 domain E139D) | enrichment score [1] | enrichment score (SHP2 N-SH2 domain L43F) | enrichment score (SHP2 N-SH2 domain T42A) | enrichment score (SHP2 N-SH2 domain T52S) | enrichment score [2] |
| --- | --- | --- | --- | --- | --- | --- |
| IKKFKYRIEEH [GJA1_Y137_G138R] | inactive: 0.669 | inactive: 0.672 | inactive: 0.644 | inactive: 0.623 | inactive: 0.723 | inactive: 0.927 |
| RLSPEYKQNEI [GJB1_Y243] | inactive: 0.635 | inactive: 0.659 | inactive: 0.79 | inactive: 0.413 | inactive: 0.856 | inactive: 0.609 |
| IKKFKYGIEEH [GJA1_Y137] | inactive: 0.715 | inactive: 0.683 | inactive: 0.536 | inactive: 0.639 | inactive: 0.707 | inactive: 0.887 |
| SSSPTYPDLPF [GLI3_Y168] | inactive: 0.649 | inactive: 0.683 | inactive: 0.719 | inactive: 0.633 | inactive: 0.624 | inactive: 0.684 |
| MGRVNYGAFIN [GLB1_Y485_YF] | inactive: 1.16 | inactive: 1.06 | inactive: 1.03 | inactive: 1.1 | inactive: 1.07 | inactive: 1.08 |
| FSDPDYLAAVD [GLB1_Y154_S149F] | inactive: 0.601 | inactive: 0.468 | inactive: 0.56 | inactive: 0.452 | inactive: 0.582 | inactive: 0.575 |
| ILNANYMAKRL [GLDC_Y839] | inactive: 0.561 | inactive: 0.594 | inactive: 0.937 | inactive: 1.11 | inactive: 1.09 | inactive: 0.97 |
| SGVNKYSTAFG [GJB3_Y16] | inactive: 0.921 | inactive: 0.648 | inactive: 0.762 | inactive: 0.577 | inactive: 0.669 | inactive: 0.779 |
| VKFGAYINDFK [GLB1_Y488_N484K_YF] | inactive: 1.04 | inactive: 1.11 | inactive: 0.749 | inactive: 1.42 | inactive: 1.33 | inactive: 1.12 |
| EVESPYEVHDF [GIGYF2_Y1168_YF] | inactive: 0.666 | inactive: 0.777 | inactive: 0.76 | inactive: 0.754 | inactive: 0.733 | inactive: 0.854 |
| LPKVSYMKAID [GLRA1_Y307_V308M] | inactive: 0.909 | inactive: 0.918 | inactive: 1 | inactive: 0.961 | inactive: 1.02 | inactive: 0.903 |
| IGMFSYVMLAS [GGCX_Y301] | inactive: 0.628 | inactive: 1.04 | inactive: 0.991 | inactive: 0.754 | inactive: 0.964 | inactive: 0.995 |
| VNFGAYINNFK [GLB1_Y488_D491N_YF] | inactive: 1.08 | inactive: 1.47 | inactive: 1.31 | inactive: 0.955 | inactive: 0.961 | inactive: 1.43 |
| SSDPDYLAAVD [GLB1_Y154] | inactive: 0.638 | inactive: 0.585 | inactive: 0.592 | inactive: 0.562 | inactive: 0.471 | inactive: 0.573 |
| SSFPDYLAAVD [GLB1_Y154_D151Y_YF] | inactive: 0.836 | inactive: 0.685 | inactive: 0.664 | inactive: 0.609 | inactive: 0.664 | inactive: 0.849 |
| TLLAFYMGNFS [GLB1_Y552_P549L] | inactive: 1.93 | inactive: 1.92 | inactive: 1.21 | inactive: 1.39 | inactive: 1.7 | inactive: 2.23 |
| PIQLFYTRRNT [GHR_Y86] | inactive: 0.282 | inactive: 0.278 | inactive: 0.247 | inactive: 0.293 | inactive: 0.292 | inactive: 0.199 |
| EVESPYEVRDY [GIGYF2_Y1168_H1171R] | inactive: 0.639 | inactive: 0.653 | inactive: 0.473 | inactive: 0.491 | inactive: 0.594 | inactive: 0.64 |
